Experimental data reported in PubChem BioAssay AID1508642 (National Center for Advancing Translational Sciences (NCATS), 2021).
About 200 (0.47%) of roughly 43,000 compounds were called active. The shares of active, inactive and inconclusive entries below differ from those in the screen. The call rests on the fitted dose curve; in most records, active means well fitted cell-killing curve with a large enough effect; inconclusive means small, poorly fitted or top-dose-only effect, or effect the other way; inactive means flat fitted curve, though single readings scatter. A potency beside an inconclusive call is a rough fit, not a confirmed value.

Assay: Cell viability qHTS assay in S16 Pmp22-F2sN cells; further: nearly all actives have a fitted effect of over 65% in size
Conditions: S16 Pmp22-F2sN Schwann cells viability, CellTiter-Glo, 24 h; activity change, negative = cytotoxicity: at 57.5 µM (top of the series)
Outline: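 S16 Pmp22-F2sN Schwann cells (500-1,000/well) in phenol-red-free DMEM with 10% FBS received 23 nL compound by pin tool for 24 h at 37 °C. Viability was then read as CellTiter-Glo luminescence after 15 min at room temperature.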
On the % scale 0 is the no-effect control and ±100 the full control effect; potency means the concentration at half of the fitted maximal effect; tags describe the fitted curve by direction and shape.

| SMILES | Potency | activity change, negative = cytotoxicity |
| --- | --- | --- |
| Cc1ccc(C2CCN(C(=O)c3cnn(-c4cccc(Cl)c4)c3C3CCN(C(=O)OC(C)(C)C)CC3)C2)cc1 (centres undefined) | inconclusive: 39.8 µM [cytotoxic, single point] | – |
| Cc1ccc2nc(N3CCC(C(=O)N4CCN(c5cccc(C)c5C)CC4)CC3)[nH]c2c1 | inconclusive: 28.2 µM [cytotoxic, single point] | – |
| Cc1ccc(CNC(=O)c2nc(SCc3ccccc3F)ncc2Cl)cc1 | – | inactive: 16.7% |
| CCOC(=O)c1ccc(N2C(=O)c3n[nH]c(C)c3C2c2cccc(Br)c2)cc1 (centres undefined) | inconclusive: 39.8 µM [cytotoxic, single point] | – |
| CCOc1ccc(CNC(=O)CCS(=O)(=O)c2cc3c4c(c2)CCN4C(=O)CC3)cc1 | inconclusive: 39.8 µM [cytotoxic, single point] | – |
| Cc1cc(C)cc(OC(=O)c2cc(-c3ccc4c(c3)OCCO4)on2)c1 | – | inactive: 4.42% |
| CCOC(=O)Cc1c(C)nc2c(-c3ccc(OC)c(OC)c3)c(C)nn2c1C | inconclusive: 14.1 µM [cytotoxic, partial curve, poor fit] | – |
| O=C(NCc1ccccc1)c1cccc(Nc2nc3ccccc3n3nnnc23)c1 | inconclusive: 35.5 µM [cytotoxic, single point] | – |
| Cc1cc(N2CCN(c3ccccc3F)CC2)n2cnnc2n1 | inconclusive: 31.6 µM [cytotoxic, single point] | – |
| CCCCOc1ccc(NC(=O)CSc2ccc(C(=O)O)cn2)cc1 | – | inactive: 5% |
| COc1cccc(CNC(=O)CCn2ccc3cc(S(=O)(=O)N4CCCC4)ccc32)c1 | inconclusive: 22.4 µM [cytotoxic, single point] | – |
| Fc1ccc(Nc2nc(SCc3ccc(Cl)cc3)nc3ccccc23)cc1 | inconclusive: 35.5 µM [cytotoxic, partial curve, poor fit] | – |
| O=S(=O)(NCC(c1ccco1)S(=O)(=O)c1ccccc1)c1cc(F)ccc1F (centres undefined) | inconclusive: 25.1 µM [cytotoxic, single point] | – |
| Cc1noc(Cn2c(=O)c3cc4c(cc3n(CC(=O)Nc3ccc(C(C)C)cc3)c2=O)OCO4)n1 | – | inactive: -1.05% |
| COc1ccccc1N1CCN(C(=O)c2cc3c(s2)-c2ccccc2OC3)CC1 | inconclusive: 35.5 µM [cytotoxic, single point] | – |
| Cc1ccccc1CN1CCC(CNC(=O)c2cc3ccc4cccnc4c3[nH]2)CC1 | inconclusive: 39.8 µM [cytotoxic, single point] | – |
| COc1ccc(-c2cc(C(F)(F)F)n3nc(C(=O)OC(C)C)cc3n2)cc1 | inconclusive: 39.8 µM [cytotoxic, partial curve, poor fit] | – |
| CCOc1ccccc1CNC(=O)C1CCN(c2nnc(C)c3c(C)n(-c4ccc(C)cc4)nc23)CC1 | inconclusive: 39.8 µM [cytotoxic, single point] | – |
| CCSc1nc(-c2ccc(OC)cc2)nc2c1Cc1c(CO)cnc(C)c1O2 | inconclusive: 31.6 µM [rising, partial curve, poor fit] | – |
| COc1ccc(OC)c(CCNC(=O)c2nc(-c3ccc(Cl)cc3)n3c2CCCCC3)c1 | inconclusive: 35.5 µM [cytotoxic, single point] | – |

| SMILES | Potency | activity change, negative = cytotoxicity |
| --- | --- | --- |
| CC(C)COc1ccc(C(=O)N2CCCCC2CCN2CCOCC2)cc1 (centres undefined) | inconclusive: 0.631 µM [rising, full curve, poor fit] | – |
| Cc1ccc(C(=O)CSc2nc(C)cc(C)c2C(=O)Nc2cccc(C)c2)cc1 | inconclusive: 31.6 µM [cytotoxic, partial curve, poor fit] | – |
| COc1ccc(CNC(=O)C(=O)NCC(c2ccco2)S(=O)(=O)c2ccc(Cl)cc2)cc1 (centres undefined) | – | inactive: -3.06% |
| CCOc1ccccc1Nc1sc(C(=O)c2ccccc2)c(N)c1C(=O)Nc1ccc(F)cc1 | inconclusive: 39.8 µM [cytotoxic, single point] | – |
| COc1ccc(S(=O)(=O)N(CC(=O)NC(C)c2ccccc2)c2ccc(C)cc2)cc1OC (centres undefined) | inconclusive: 39.8 µM [cytotoxic, single point] | – |
| CCOc1ccccc1-c1noc(CSc2nnc(-c3ccccc3)n2-c2ccc(OC)cc2)n1 | inconclusive: 35.5 µM [cytotoxic, partial curve, poor fit] | – |
| Cc1cccc(-c2nc3c(cnn3-c3ccccc3)c(=O)n2-c2ccc(Cl)cc2)c1 | inconclusive: 39.8 µM [cytotoxic, single point] | – |
| COc1ccccc1CNC(=O)CCCCn1c(=O)c2ccccc2n(Cc2ccccc2F)c1=O | – | inactive: 2.75% |
| O=C(C1CCCN(S(=O)(=O)c2cccc3nsnc23)C1)N1CCN(c2cccc(Cl)c2)CC1 (centres undefined) | inconclusive: 31.6 µM [cytotoxic, single point] | – |
| CCN1C(=O)C(O)(c2c[nH]c3ccccc23)c2cc(Br)ccc21 (centres undefined) | – | inactive: -5.51% |
| Cc1ccc(CCNC(=O)c2ccc(Nc3nc4ccccc4n4nnnc34)cc2)cc1 | – | inactive: -9.59% |
| FC(F)(F)c1cccc(Nc2c3c(nc4ccc(Cl)cc24)CCC3)c1 | inconclusive: 39.8 µM [cytotoxic, single point] | – |
| CCCCCN1C(C(=O)c2ccccc2)=C(OC(=O)CC)c2ccccc2S1(=O)=O | inconclusive: 2.24 µM [cytotoxic, full curve, poor fit] | – |
| COc1ccc(NC(=O)CCn2cnc3onc(-c4ccc(F)cc4)c3c2=O)cc1OC | inconclusive: 6.31 µM [cytotoxic, full curve] | – |
| CC(C)c1ccc(Nc2c(-c3ccccn3)nc3ccccn23)cc1 | active: 8.91 µM | – |
| Cn1c(=O)c2c(-c3ccc(Cl)cc3)n(CCc3ccccc3)cc2n(C)c1=O | inconclusive: 39.8 µM [cytotoxic, single point] | – |
| Cc1ccc(-n2ncc(C(=O)NCc3ccco3)c2C2CCN(C(=O)OC(C)(C)C)CC2)cc1 | inconclusive: 35.5 µM [cytotoxic, single point] | – |
| CCc1ccc(C(=O)CC2(O)C(=O)N(CCc3ccccc3)c3ccc(Cl)cc32)cc1 (centres undefined) | active: 20 µM | – |
| COc1ccc(CCNC(=O)c2cc(=O)c3cc(C)c(C)cc3o2)cc1OC | inconclusive: 4.47 µM [cytotoxic, partial curve, poor fit] | – |
